Results published in article PMC4336329 (PLoS ONE, 2015).
Screen size: about 310,000 compounds; about 14,000 (4.5%) showed an effect of 50% or more. The effect is printed as a negative number. This is one part of the list.

Target: human ether-à-go-go-related gene (hERG) potassium channel (human, UniProt Q12809)
Assay: primary screen, population patch clamp on CHO cells stably expressing hERG
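Further: peak tail current of the secondary pulse compared with the same well before compound.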

Sequence of human ether-à-go-go-related gene (hERG) potassium channel (Q12809 whole entry, looked up): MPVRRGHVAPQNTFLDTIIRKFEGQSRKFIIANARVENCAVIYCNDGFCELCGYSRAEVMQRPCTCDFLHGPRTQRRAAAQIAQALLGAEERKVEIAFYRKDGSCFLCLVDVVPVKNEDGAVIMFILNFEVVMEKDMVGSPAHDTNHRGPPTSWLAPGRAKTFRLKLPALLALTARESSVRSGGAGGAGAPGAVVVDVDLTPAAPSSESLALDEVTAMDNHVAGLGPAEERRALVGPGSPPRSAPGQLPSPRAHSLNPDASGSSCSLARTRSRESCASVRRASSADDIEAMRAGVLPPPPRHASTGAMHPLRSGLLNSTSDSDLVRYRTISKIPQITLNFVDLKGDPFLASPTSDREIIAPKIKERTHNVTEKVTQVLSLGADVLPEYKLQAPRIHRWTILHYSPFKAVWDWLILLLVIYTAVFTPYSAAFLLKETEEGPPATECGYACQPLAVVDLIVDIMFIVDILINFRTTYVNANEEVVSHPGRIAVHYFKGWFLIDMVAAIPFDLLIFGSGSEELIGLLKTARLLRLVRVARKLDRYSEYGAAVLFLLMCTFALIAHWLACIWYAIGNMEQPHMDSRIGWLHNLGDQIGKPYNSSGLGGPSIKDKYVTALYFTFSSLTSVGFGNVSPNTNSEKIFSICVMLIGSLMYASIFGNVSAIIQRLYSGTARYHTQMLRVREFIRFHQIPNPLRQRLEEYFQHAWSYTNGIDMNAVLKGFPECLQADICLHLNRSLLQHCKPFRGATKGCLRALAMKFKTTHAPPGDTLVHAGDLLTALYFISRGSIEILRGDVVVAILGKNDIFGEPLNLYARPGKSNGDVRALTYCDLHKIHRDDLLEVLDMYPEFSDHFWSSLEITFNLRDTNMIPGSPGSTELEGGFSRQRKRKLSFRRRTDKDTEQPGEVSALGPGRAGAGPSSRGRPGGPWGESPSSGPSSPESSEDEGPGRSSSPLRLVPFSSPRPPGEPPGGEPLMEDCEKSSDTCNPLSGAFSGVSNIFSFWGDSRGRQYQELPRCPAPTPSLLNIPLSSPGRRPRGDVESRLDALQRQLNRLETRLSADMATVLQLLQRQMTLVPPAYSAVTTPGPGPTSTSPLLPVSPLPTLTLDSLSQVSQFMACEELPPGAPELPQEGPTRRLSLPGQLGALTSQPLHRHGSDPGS

Structure (SMILES) | hERG current change (%, negative = inhibition) at 10uM
CN(CC(=O)NCCc1ccc(S(N)(=O)=O)cc1)Cc1ccc(Cl)cc1Cl | -1.25%
O=C(O)COc1ccccc1/C=N/NC(=O)CSc1nc2ccccc2n1Cc1ccc(Cl)cc1 | 26.6%
C=CCn1c(SCC(=O)Nc2ccc(OC)cc2)nnc1-c1cnccn1 | -23.1%
FC(F)(F)c1ccc2c(c1)[nH]c(=S)n2C1CC1 | 13.9%
Cc1cccc(NC(=O)c2sc3nc(-c4ccccc4)cn3c2C)n1 | -6.16%
NC(=O)[C@@H]1CC2(CC(c3cccc(NC(=O)COc4ccc(Cl)cc4)c3)=NO2)CN1C(=O)c1ccccc1 (some centres unmarked) | -22.4%
CC1(C)NC(=O)N(CCCCOc2ccc(Cl)cc2C=O)C1=O | -11.8%
Cc1c(NC(=O)Nc2ccc([N+](=O)[O-])cc2)c(=O)n(-c2ccccc2)n1C | 6.68%
O=C(O)CNC(=O)c1ccc(NC(=O)/C(=C/c2cccc([N+](=O)[O-])c2)NC(=O)c2ccco2)cc1 | 18.9%
CC1CC(=O)Nc2ccccc2S1(=O)=O (centres unmarked) | 7.89%
O=C(Nc1ccc(F)cc1)C1CCN(S(=O)(=O)c2cccs2)CC1 | -24.4%
CC1(C)NC(=O)N(CNc2cc(Cl)ccc2Cl)C1=O | 1.46%
COc1cc(/C=C2\SC(=S)N(CCCCC(=O)O)C2=O)ccc1OS(=O)(=O)c1ccc(C)cc1 | 1.93%
CCCn1c(N)c(C(=O)CSc2nc3ccccc3c(=O)n2-c2ccc(OC)cc2)c(=O)[nH]c1=O | 6.68%
Cc1ccc(C)c(OCCC(=O)Nc2cccc(S(=O)(=O)NC3=NCCCCC3)c2)c1 | -15.1%
CCn1c2ccccc2c2cc(C3C(C#N)=C(C)NC(C)=C3C#N)ccc21 | 2.06%
CC1Cc2ccccc2N1C(=O)COC(=O)CNC(=O)c1ccc(Br)o1 (centres unmarked) | -60.2%
CSc1nc2cc(C)nn2c(-c2ccccc2Cl)c1C#N | 11.9%
O=C(O)CNC(=O)C(CS)Cc1ccccc1 (centres unmarked) | 17.1%
COc1ccc(-c2nnn(CC(=O)NCc3ccc4c(c3)OCO4)n2)cc1OC | 14.9%
NCCSc1c(-c2ccccc2)[nH]c2ccccc12 | -12.1%
CCCOC(=O)C1=C(C)N(C)C(=O)NC1c1cc2c(cc1Br)OCO2 (centres unmarked) | -0.94%

Structure (SMILES) | hERG current change (%, negative = inhibition) at 10uM
Cc1c(O)nc(SCC(=O)Nc2ccc3c4c(cccc24)CC3)n(-c2ccc(F)cc2)c1=O | -7.83%
Cc1cc(C(=O)NNC(=O)c2nn(C)c(=O)c3ccccc23)c(C)o1 | -0.338%
C[C@H](NC(=O)[C@@H]1Cc2ccccc2CN1)C(=O)Nc1ccc2c(c1)OCO2 | 14.3%
O=C(CN1CCC(C(=O)c2ccc(Cl)cc2)CC1)NC1CCCC1 | -19.3%
O=C(NCc1cccs1)c1ccc2c(c1)OCCO2 | 13%
CCOC(=O)CCNC(=O)Nc1ccc2nc(C)n(Cc3ccc(Cl)cc3)c(=O)c2c1 | -10.5%
CCc1nc(C)cn1S(=O)(=O)c1cc(F)ccc1OC | 20%
CC(C)Cc1nnc(NC(=O)CC(=O)Nc2ccccc2C(=O)O)s1 | 13.1%
O=C(Cn1cnc([N+](=O)[O-])n1)NCc1ccccc1 | -3.56%
N#CCCN(C(=O)CSc1nc(-c2ccccc2)cn1N)c1ccc(F)cc1 | -2.25%
O=C(Cc1cccc2ccccc12)Nc1ccc(O)cc1C(=O)O | 15.4%
CC(C)C(=O)NC(=S)Nc1ccccc1F | 0.45%
O=C(Cn1ncc2c3ccccc3n(Cc3ccccc3F)c2c1=O)NCC1CCCO1 (centres unmarked) | 11%
O=C1C=C(NCC2CCCO2)C2(CCCCC2)O1 (centres unmarked) | 9.66%
COC(=O)c1ccc(NC(=O)Nc2ccc([N+](=O)[O-])cc2)cc1 | 12.5%
Cc1cc2c(cc1C)-c1c(ssc1=Nc1ccc(S(N)(=O)=O)cc1)C(C)(C)N2 | 18.3%
CCCCNS(=O)(=O)c1ccc2nc(SCC(N)=O)[nH]c2c1 | 15.1%
O=C(CCS(=O)(=O)Cc1ccccc1)NCCc1ccccc1 | -1.42%
COc1ccccc1/C=C/C(=O)N1CCC(c2ccccc2)C1 (centres unmarked) | -4.29%
C=CCOC(=O)C1=C[C@@H](c2csc3ccccc23)C[C@@H](OCCCCO)O1 | -16.9%
O=C(CNC(=O)c1ccco1)OCC(=O)c1ccccc1 | 9.74%
O=C(/C=C/c1ccccc1Cl)NC1CCCCC1 | 18.8%
